The campaign covered roughly 150,000 compounds. About 540 (0.36%) showed an effect of 50% or more. Some of the results follow.
Tested on: Plasmodium falciparum
Assay: Primary screen in NF54 nanoGlo assay, in single point, at 2uM, 72h; a lower Z score goes with more inhibition
Type: functional, Erythrocyte
Conditions: timepoint 72 hour

SMILES	% Inhibition	Z score
O=C(NCCCn1ccnc1)c1cc(=O)[nH]c2cc(F)ccc12	16%	-2
O=S(=O)(NC1CCN(C2CCCC2O)CC1)c1cccc(Br)c1 (stereo not drawn)	-8%	0.96
CN1CC[C@H](C(=O)N2CCN(c3ccccn3)CC2)CC1=O	3%	-0.43
Cc1nc(-c2cc(S(=O)(=O)Nc3cccc(Cl)c3)cn2C)sc1C(=O)N1CCOCC1	0%	-0.02
CC(=O)N[C@H]1CN(Cc2nc(C)cc(C)n2)C[C@@H]1c1ccc(C)cc1	-7%	0.82
C[C@H]1CN(c2cccc(-c3ccccc3)c2)C(=O)CN1C(=O)c1cccc(O)c1	-17%	1.95
O=C(Nc1ccc2c(c1)OCCO2)NC1CC2CC2C1 (stereo not drawn)	-13%	1.78
COCCC1(CNc2nccnc2C#N)CCCC1	-9%	1.06
CCOCCOc1ccccc1C(=O)N1CC[C@@H]2OCc3cccc(c3)Oc3cc(ccc3OC)CCC(=O)N[C@@H]2C1	3%	-0.44
CC(=O)N(C)c1cccc(NC(=O)NCCC(F)(F)F)c1	-12%	1.01
Oc1c(Cl)cc(Cl)cc1CNc1nc2ccc(Br)cn2n1	-11%	1.13
COc1cccc(OCCNC(=O)C(C)(C)C)c1	-12%	1.2
CCc1ccc(N2C[C@@H](c3nc(CC)no3)CC2=O)cc1	7%	-1.39
Cc1ccc(-c2ccc(CCC(=O)N3CCC(n4cnnc4)CC3)o2)cc1	-6%	0.86
O=C(Cc1cccc(F)c1)N1CCC2(CC1)C[C@H](CO)N(C(=O)c1ccccc1)C2	-3%	0.33
O=c1cnc2cc(F)c(F)cc2n1CCOC[C@H]1CCCO1	-9%	1.74
C[C@@H](CN1CCCCC1)NC(=O)c1cnn2c1CCCC2	-4%	0.52
O=C(CC1N=C(O)N(Cc2cccc(F)c2)C1=O)N1CCOC(c2ccccc2)C1 (stereo not drawn)	-6%	0.77
COc1ccccc1CN(C(=O)c1ccc(C)cc1)c1ccc(CC(=O)N(C)C2CCCCC2)cc1	-13%	2.04
O=C(C[C@H]1COCCN1)c1ccccc1	-13%	2.09
c1cc2nnc(C3CC3)n2nc1N1CCC(OC2CCOCC2)CC1	-4%	0.61
C[C@@H](Cn1cncn1)c1nc(CC(N)=O)nn1-c1cccc2c1CCC2	-11%	1.69
Cc1c(Cl)cccc1NC(=O)c1ccnc(-c2ccsc2)c1	10%	-1.3
Cn1cc(S(=O)(=O)NC2CCN(c3cnsn3)CC2)cn1	7%	-0.96
Cc1n[nH]c(C)c1CCC(=O)NCc1cc2n(n1)CCN(C1CCCCC1)C2	-16%	2.27
c1n[nH]c2c1CCC(NC1CCC13CCCC3)C2 (stereo not drawn)	-4%	0.59
Cc1ccnc(-n2nc(C)cc2NC(=O)Cc2noc3ccccc23)c1	-2%	0.28

SMILES	% Inhibition	Z score
CN(C)CC(C)(C)CNC(=O)C(=O)Nc1ccc(N(C)C)cc1	-17%	2.65
Cc1ncc(CN2CCc3cncnc3C2)s1	1%	-0.19
CC(=O)NC[C@H]1CCCN(C(=O)c2coc(COc3cccc(F)c3)n2)C1	-8%	1.56
Cc1ccccc1-c1cn[nH]c1C1CCN(c2cnccn2)CC1	-11%	1.43
CN(CCN(C)C(=O)c1cncc(F)c1)C(=O)c1cncc(F)c1	22%	-2.4
CC(C)(C)OC(=O)N(Cc1nccn1C(F)F)C1CC1	-2%	0.15
Cc1ccc(NC(=O)C[C@](C)(O)C(F)(F)F)c(C)c1	-6%	1.13
CC[C@H](NC(=O)CCc1cnn(C)c1)c1ccc2c(c1)CC(C)(C)O2	-4%	0.74
CN(CCn1nc(C2CC2)nc1C1CC1)Cc1ccccc1	-14%	1.38
NC(=O)C1CCN(C2CN(C(=O)c3ccc4nsnc4c3)C2)CC1	-7%	1.27
CCN(C(=O)Cn1c(C)cc2nc3n(c(=O)c21)CCCCC3)c1cccc(C)c1	0%	-0.03
COCCn1c([C@H](C)NC(=O)CCn2ccc3ccc(F)cc32)nc2ccccc21	-14%	1.68
O=C(NCCn1nc2c(cc1=O)CCC2)c1cncc(O)c1	14%	-1.84
Cc1nn(C)c(Cl)c1CN1CCC[C@H](N(C)Cc2ccccc2)C1	-4%	0.41
CN1C(=O)CC[C@]2(CNC(=O)c3ccc(F)cc3)CCCC=C12	-12%	2.2
CC[C@H](CO)NC(=O)NC(C)c1ccncc1F (stereo partly drawn)	3%	-0.51
CC(=O)N1CCC(CNC(=O)c2cc(C)cc(F)c2)CC1	5%	-0.77
COc1nc2c(cc1CNC(=O)c1ccnc(N)c1)C(=O)N(C1CCCC1)C2	-16%	2.25
OC[C@@]1(CCOc2ccccc2)CCCN(Cc2cc3c(cc2Cl)OCO3)C1	-1%	0.29
CC(=O)NC1CCC(Nc2ccc(N3CC(C)OC(C)C3)cc2)CC1 (stereo not drawn)	-11%	1.08
CC(C)(CC(=O)N1CC[C@](C)(C(N)=O)C1)C(F)(F)F	2%	-0.38
O=C(Nc1nonc1NC(=O)c1ccc2c(c1)OCO2)c1ccc2c(c1)OCO2	-1%	0.1
CCc1cnc(CNC(=O)NCC(C)N2CCOCC2C)s1 (stereo not drawn)	-6%	0.61
CCC(CC)(C(=O)O)C(=O)Nc1ccc2c(c1)CNCC2	-10%	1.6
Cc1nc(C)c(Cc2cccc(F)c2)c(N2CCN(C[C@@H](O)Cc3ccccc3)CC2)n1	-4%	0.53
C#CCNC(=O)c1ccc(N[C@H]2CCCN(c3ncccn3)C2)nc1	1%	-0.12
Cc1cccc(NC(=O)Nc2ccccc2C2CC2)c1	-8%	1.07

Reference: ChEMBL document CHEMBL4888484, “Replenishing the malaria drug discovery pipeline: Screening and hit evaluation of the MMV Hit Generation Library 1 (HGL1) against asexual blood stage Plasmodium falciparum ,using a nano luciferase reporter read-out” (2022)
